In the supplement of paper PMC7826260:
The other results are listed elsewhere or left out. Viral Rep nickase domains cut single-stranded DNA in vitro at 3 µM enzyme and 37 °C for 1 h; the strands have 90 letters, of which the middle is given. Values are log2 of uncut reads against the no-enzyme pool; the lower, the more was cut; hits are not called. Counts are relative to all reads; values above 0 arise when much of the pool is cut.

Legend:
Assay in all cases: uncleaved DNA left, log2 of reads against the no-enzyme library (log2 ratio); higher = less cleavage (more negative = more Rep cleavage of the k-mer); sequences stand for … in CTCGTCCG…ACCGGAGA
[1] = system: T1, Rep nickase domain of Muscovy duck circovirus
T1 sequence (residues 1-111 of Rep, tag left off): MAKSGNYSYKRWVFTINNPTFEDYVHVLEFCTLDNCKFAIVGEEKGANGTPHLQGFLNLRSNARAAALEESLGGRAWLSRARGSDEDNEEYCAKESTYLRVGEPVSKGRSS
Procedure: (§1)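 A pool of 90-nt single-stranded DNAs with seven random bases just before the constant AC of the nick site (name = the seven bases) was cut by 3 µM recombinant His6-SUMO-tagged Rep nickase domain (300 nM DNA, 50 mM HEPES pH 8.0, 50 mM NaCl, 1 mM MnCl2, 1 h, 37 °C, three replicates). Uncut DNA was amplified and sequenced.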

[2] = system: T2, Rep nickase domain of banana bunchy top virus
T2 sequence (residues 1-94 of Rep, tag left off): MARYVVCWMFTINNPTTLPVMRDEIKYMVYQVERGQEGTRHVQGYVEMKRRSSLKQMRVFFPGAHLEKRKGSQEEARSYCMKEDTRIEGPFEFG
Procedure: as §1

[3] = system: T3, Rep nickase domain of cabbage leaf curl virus
T3 sequence (residues 1-116 of Rep, tag left off): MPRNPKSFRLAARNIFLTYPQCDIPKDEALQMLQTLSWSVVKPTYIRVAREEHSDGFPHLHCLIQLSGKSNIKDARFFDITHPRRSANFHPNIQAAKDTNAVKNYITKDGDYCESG
Procedure: as §1

[4] = system: T4, Rep nickase domain of chickpea chlorotic dwarf virus
T4 sequence (residues 1-124 of Rep, tag left off): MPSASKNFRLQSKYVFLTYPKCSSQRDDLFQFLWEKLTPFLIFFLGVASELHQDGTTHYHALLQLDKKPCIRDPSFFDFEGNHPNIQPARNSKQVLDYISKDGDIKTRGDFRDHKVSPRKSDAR
Procedure: as §1

[5] = system: T5, Rep nickase domain of faba bean necrotic yellows virus
T5 sequence (residues 1-98 of Rep, tag left off): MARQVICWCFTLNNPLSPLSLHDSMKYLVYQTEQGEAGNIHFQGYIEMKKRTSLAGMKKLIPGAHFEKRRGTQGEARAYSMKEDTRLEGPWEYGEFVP
Procedure: as §1

[6] = system: T6, Rep nickase domain of maize striate mosaic virus
T6 sequence (residues 1-117 of Rep, tag left off): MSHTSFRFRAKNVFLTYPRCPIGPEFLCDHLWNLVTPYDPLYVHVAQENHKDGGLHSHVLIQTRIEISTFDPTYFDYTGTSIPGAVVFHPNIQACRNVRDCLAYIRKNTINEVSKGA
Procedure: as §1

[7] = system: T7, Rep nickase domain of porcine circovirus 2
T7 sequence (residues 2-116 of Rep, tag left off): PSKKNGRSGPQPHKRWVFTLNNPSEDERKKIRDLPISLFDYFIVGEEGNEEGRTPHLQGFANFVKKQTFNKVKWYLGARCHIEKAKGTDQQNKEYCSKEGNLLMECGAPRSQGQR
Procedure: as §1

[8] = system: T8, Rep nickase domain of tomato yellow leaf curl virus
T8 sequence (residues 1-136 of Rep, tag left off): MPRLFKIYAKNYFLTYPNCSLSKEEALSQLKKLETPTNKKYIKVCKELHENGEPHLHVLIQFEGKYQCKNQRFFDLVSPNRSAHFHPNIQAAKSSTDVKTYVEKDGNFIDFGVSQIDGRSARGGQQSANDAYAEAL
Procedure: as §1

[9] = system: T9, Rep nickase domain of wheat dwarf virus
T9 sequence (residues 1-137 of Rep, tag left off): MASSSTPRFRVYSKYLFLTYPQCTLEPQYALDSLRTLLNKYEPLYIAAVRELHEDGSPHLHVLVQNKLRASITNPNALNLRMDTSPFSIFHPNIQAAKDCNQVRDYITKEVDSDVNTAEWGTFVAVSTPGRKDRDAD
Procedure: as §1

Sequence	uncleaved DNA left (log2) [1]	uncleaved DNA left (log2) [2]	uncleaved DNA left (log2) [3]	uncleaved DNA left (log2) [4]	uncleaved DNA left (log2) [5]	uncleaved DNA left (log2) [6]	uncleaved DNA left (log2) [7]	uncleaved DNA left (log2) [8]	uncleaved DNA left (log2) [9]
ACAATTG	0.00443	0.0377	-0.7	-0.364	0.0367	-1.02	0.177	0.112	0.0657
CCATGAA	-0.0987	-0.128	-0.411	-0.516	-0.0851	-1.02	-0.233	-0.0364	-0.232
ACCCAGA	0.0697	0.00536	-0.124	-0.0775	0.0508	-1.03	0.0742	-0.0783	-0.0313
CTTGGAA	0.0302	0.196	0.172	0.427	0.0213	0.0664	0.294	0.0268	0.0213
TACGAGC	0.0798	0.197	0.351	0.851	0.033	0.649	0.182	0.00823	0.11
CGGGCTG	-0.0591	0.0197	0.172	0.849	-0.0517	1.64	0.0623	-0.12	-0.145
ACGCAAA	-0.152	0.00782	-0.103	-0.175	-0.135	-0.717	0.132	-0.207	-0.0762
TCTTCAG	-0.0625	-0.0681	-0.382	-0.753	0.0199	-1.11	0.108	-0.0216	-0.0538
TTTGCAA	0.04	0.153	-0.398	-0.41	0.0173	-1.02	0.235	0.0556	0.0901
ATGTGGA	0.107	-0.00512	-0.0281	-0.118	-0.0191	-0.405	-0.0878	0.00986	0.022
CTTACGA	-0.0439	-0.0661	-0.246	-1.31	-0.0523	-0.948	0.0705	-0.121	-0.0119
GATCATG	0.0869	0.0197	-0.00433	0.269	-0.0507	-0.421	0.0901	-0.12	-0.0549
TTGGCTT	0.0524	-0.0369	-0.0575	-1.26	-0.00178	-0.00102	-0.195	-0.0999	-0.0958
AGATTCT	-2.5	0.0263	-0.0797	-1.75	0.0606	-0.386	-2.88	0.096	-0.143
TCCGCCG	-0.0139	-0.085	-0.73	-0.0286	0.0308	-0.711	0.0234	-0.0317	-0.11
TGTTATC	-0.0017	0.0257	0.273	0.555	-0.173	0.926	-0.0693	0.0543	-0.052
CTCTGAA	0.0191	0.194	0.138	-0.332	-0.0933	-0.468	-0.0597	0.00685	0.154
AATACGT	-0.0903	-0.0549	0.187	-0.653	0.0186	-0.244	-1.78	0.0249	0.0201
ACTGCCG	-0.0247	-0.0313	-0.89	-0.514	0.0185	-1.15	0.0175	0.0368	-0.131
CGCTTAG	0.17	-0.0263	-0.362	-0.173	0.171	-0.925	0.251	0.156	0.127

Sequence	uncleaved DNA left (log2) [1]	uncleaved DNA left (log2) [2]	uncleaved DNA left (log2) [3]	uncleaved DNA left (log2) [4]	uncleaved DNA left (log2) [5]	uncleaved DNA left (log2) [6]	uncleaved DNA left (log2) [7]	uncleaved DNA left (log2) [8]	uncleaved DNA left (log2) [9]
GCTTGTG	-0.0426	-0.174	-0.752	-0.065	0.00168	-0.845	0.0628	-0.0591	-0.259
CTAAAAG	0.00561	0.149	-0.678	-0.296	0.194	-1.07	0.248	0.111	0.107
CCGGATG	-0.111	0.0884	0.0688	0.378	0.179	0.564	0.0862	-0.0712	0.0935
TACCTGT	-0.0651	-0.157	-0.176	-1	-0.174	0.203	-0.562	0.0587	-0.0813
ATTCCCA	-0.834	-0.0943	0.0916	-1.01	0.0616	-0.326	-2.85	0.135	0.123
TTGCAGA	-0.03	-0.151	-0.68	-0.628	-0.0248	-1.17	0.0415	0.0955	-0.0774
CTAACTA	0.0548	0.0722	-0.295	-1.99	0.179	-0.614	-0.0716	0.0997	0.0384
CTCAACA	-0.0348	0.0651	-0.189	-2.37	0.119	-0.669	-0.247	-0.0245	0.133
CCGCAAA	0.139	-0.112	0.116	0.0668	0.0338	-0.654	0.148	-0.127	0.062
ATTTGCA	0.00151	0.0584	-0.774	-0.604	0.12	-1.09	0.208	0.0957	0.0141
ACGTTAG	-0.0744	-0.124	-0.845	-0.554	-0.0316	-1.33	0.194	0.0173	-0.169
CTCAGGC	-0.0201	0.0523	0.0873	0.381	-0.117	-0.459	0.0592	-0.0881	-0.0137
ACCGATC	0.0865	0.0626	-0.0483	0.0853	0.129	-0.584	0.196	0.0498	0.137
TGCGAAC	0.0561	-0.0387	0.00073	-0.0227	0.138	-0.399	0.137	-0.0059	0.049
AACCTAA	0.00727	-0.0354	-0.0713	-1.08	-0.0386	-0.601	-0.227	0.0414	0.0871
GGAGAAC	0.0557	0.174	0.881	1.89	-0.0112	2.17	0.193	0.123	0.164
TCATTGG	0.0232	0.054	-0.726	-0.749	0.0909	-1.2	0.166	0.0909	-0.0855
GTACGTA	0.0957	0.0117	0.393	0.718	0.0298	1.34	0.131	0.0632	0.0764
CTTAACG	-0.088	-0.00536	-0.764	-0.269	0.133	-1.13	0.216	0.0441	-0.0299
ATGTCAG	-0.12	-0.107	-0.697	-0.525	0.0111	-1.02	0.108	-0.0908	-0.16

Sequence	uncleaved DNA left (log2) [1]	uncleaved DNA left (log2) [2]	uncleaved DNA left (log2) [3]	uncleaved DNA left (log2) [4]	uncleaved DNA left (log2) [5]	uncleaved DNA left (log2) [6]	uncleaved DNA left (log2) [7]	uncleaved DNA left (log2) [8]	uncleaved DNA left (log2) [9]
TCTTCGT	-0.188	-0.176	-0.381	-1.02	-0.136	-1.1	-0.297	-0.0779	-0.153
TATCGCA	0.0506	0.0205	-0.441	-1.58	-0.00801	-1.21	-0.0413	-0.00218	-0.02
GAACGAA	0.114	0.174	0.444	0.513	0.057	0.797	0.281	0.188	0.168
GAGTCTA	9.44e-05	-0.0491	0.261	-0.665	-0.118	1.24	-2.39	0.129	0.107
GTGGCTG	-0.0325	0.00328	0.218	0.821	-0.117	1.67	0.114	-0.0224	0.0312
TGTGAGA	0.219	0.147	0.19	0.303	0.193	-0.368	0.244	0.219	0.0829
GTCATAA	0.125	0.102	0.334	0.918	0.00259	1.77	0.179	0.198	0.0204
ATGTATA	-0.174	-0.186	-0.252	-1.79	-0.169	-0.532	-0.606	-0.137	-0.17
GGAAAGT	0.106	0.0778	0.843	1.79	0.0123	2.06	0.21	0.057	0.235
CTGGATG	0.13	-0.0699	-0.0842	0.152	-0.0914	-0.338	0.204	-0.0897	-0.132
AGCTTCC	-0.0825	-0.00595	0.124	0.302	-0.0966	0.121	-0.731	-0.034	0.0551
CCGAGTC	0.104	-0.0783	0.259	0.271	-0.147	-0.12	-0.187	-0.0783	0.0369
CCTCTTC	0.0964	0.102	0.066	-0.393	-0.0965	-0.569	0.111	-0.0447	-0.144
GGAAGCC	-0.000112	0.0825	0.52	1.13	-0.0141	1.44	0.162	0.0675	0.102
GAGACCT	0.0439	0.159	0.577	1.5	0.00581	1.94	-1.79	0.0659	0.22
GATGCGT	0.17	0.102	-0.624	0.0203	0.116	-0.635	0.138	0.115	0.0384
TGATTGC	-0.0166	-0.054	-0.829	-0.153	0.0214	-1.04	0.119	0.0292	-0.17
CGAGACG	-0.0356	0.107	-0.336	-0.298	0.014	-0.752	0.172	0.0234	-0.0182
GGCAGAT	0.0308	0.0135	0.659	1.63	-0.0296	1.98	0.174	0.0605	0.101
TCTGCGC	-0.102	-0.195	-0.948	0.297	-0.00305	-0.9	-0.0876	-0.0549	-0.303
